Several values for one entry are separate records, joined by “and”; a condition that tells them apart may be missing. Equal entries are not always repeated. Hit rate of the full screen: of about 310,000 compounds, about 11,000 (3.5%) were called active. The shares of active, inactive and inconclusive entries below differ from those in the screen. Calls come from the whole dose curve; as a rule, active = well fitted inhibition curve with a large enough effect; inconclusive = small, poorly fitted or top-dose-only effect, or effect the other way; inactive = flat fitted curve, though single readings scatter. Where the call is inconclusive, the potency comes from a doubtful curve fit.
Assay: VP16 counterscreen qHTS for inhibitors of ROR gamma transcriptional activity;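 note: Gal4-VP16 expression switched on by copper sulfate through the metallothionein promoter; nearly all actives have a fitted effect of over 50% in size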
Conditions: Drosophila S2 Gal4-VP16 UAS-luciferase, luminescence, 20 h; activity, negative = inhibition: at 53.6 µM (top of the series)
% is set by controls: 0 for no effect and ±100 for the full control effect; potency is the fitted concentration of half-maximal effect; tags give direction and shape of the fitted curve.

SMILES	Potency	activity, negative = inhibition
CC(C)C(=O)Nc1cccc(NC(=S)NC(=O)c2cccs2)c1	inconclusive: 0.316 µM [activator, full curve, poor fit]	–
CN(C)c1nc2n(c(=O)n1)C(C#N)CS2 (configuration not stated)	inconclusive: 35.5 µM [inhibitor, single point]	–
Cc1c2oc3c(C)ccc(C(=O)N[C@@H]4C(=O)N[C@H](C(C)C)C(=O)N5CCC[C@H]5C(=O)N(C)CC(=O)N(C)[C@@H](C(C)C)C(=O)O[C@@H]4C)c3nc-2c(C(=O)N[C@@H]2C(=O)N[C@H](C(C)C)C(=O)N3CCC[C@H]3C(=O)N(C)CC(=O)N(C)[C@@H](C(C)C)C(=O)O[C@@H]2C)c(N)c1=O	active: 89.1 nM and active: 20 µM	–
Cn1c(=O)cc(Nc2ccccc2)c2c(=O)n(-c3ccccc3)c(=O)n(-c3ccccc3)c21	–	inactive: -11.1%
O=C1CC(Nc2ccc(N3CCOCC3)cc2)C(=O)N1c1ccccc1F (configuration not stated)	–	inactive: -6.97%
COc1ccc(S(=O)(=O)Nc2cccnc2)cc1OC	inconclusive: 0.631 µM [activator, single point]	–
Cc1ccc(-c2csc(N3CCN(c4cc5c(cc4Cl)nc(C)n5CCN4CCCCC4)CC3)n2)cc1	inconclusive: 35.5 µM [inhibitor, single point]	–
COc1cccc(-c2nnc(NC(=O)C(C)C)o2)c1	active: 15.8 µM	–
C=CCn1c(C)cc(C(=O)CN2NS(=O)(=O)c3ccccc3C2=O)c1C	inconclusive: 17.8 µM [inhibitor, single point]	–
FC(F)(F)c1ccccc1/C=N/n1c(C2CCCCC2)n[nH]c1=S	inconclusive: 22.4 µM [inhibitor, single point]	–
O=C(CSc1nncs1)Nc1nnc(-c2ccccc2)o1	inconclusive: 35.5 µM [inhibitor, single point]	–
Cc1ccc(OCCSc2ncnc3nc[nH]c23)cc1	inconclusive: 35.5 µM [inhibitor, single point]	–
O=C1NC(=S)/C(=C\c2ccc(-c3ccccc3Cl)o2)S1	inconclusive: 35.5 µM [inhibitor, single point]	–
CC(C)COc1ccc(C(=O)NC(=S)Nc2ccc(CN3CCOCC3)cc2)cc1	inconclusive: 5.62 µM [activator, single point]	–
O=C(Nc1ccccc1C(=O)N/N=C/c1ccco1)c1ccc(F)cc1	active: 5.01 µM	–
O=C1Nc2cc(C(=O)NCCCN3CCOCC3)ccc2S/C1=C/c1ccccc1F	–	inactive: -24%
CCCCOC(=O)C1=C(C)NC(=O)NC1c1ccc([N+](=O)[O-])s1 (configuration not stated)	inconclusive: 10 µM [activator, partial curve]	–
NS(=O)(=O)O	–	inactive: -2.52%
CCOC(=O)C(CCCOc1ccc(C(C)CC)cc1)C(=O)OCC (configuration not stated)	inconclusive: 5.01 µM [inhibitor, full curve]	–
COC(=O)c1cc(NC(=O)C(C)c2ccc(CC(C)C)cc2)ccc1O (configuration not stated)	inconclusive: 35.5 µM [inhibitor, single point]	–
CC(C)(C)C(=O)NCC12C=CC(O1)C1C(=O)N(c3ccccc3)C(=O)C12 (configuration not stated)	inconclusive: 3.98 µM [inhibitor, single point]	–
Cc1[nH]c2ccccc2c1C(=O)CN1C(=O)NC(C)(c2ccc(Cl)cc2Cl)C1=O (configuration not stated)	–	inactive: -13.3%
Fc1cccc(F)c1-n1c(CN2CCCCC2)csc1=S	inconclusive: 22.4 µM [inhibitor, partial curve, poor fit]	–

SMILES	Potency	activity, negative = inhibition
O=C(/C=C/c1ccco1)c1ccccc1O	inconclusive: 2.82 µM [activator, full curve, poor fit]	–
Cc1cccc(/C=N/NC(=O)c2cccc(Cl)c2)n1	active: 11.2 µM	–
CCc1ccc2nc(N(CCCN(C)C)C(=O)c3ccc(S(=O)(=O)N4CCc5ccccc5C4)cc3)sc2c1	inconclusive: 35.5 µM [inhibitor, single point]	–
C=CCn1c(SCC(=O)c2cccs2)nnc1-c1cccc(OC)c1	inconclusive: 11.2 µM [activator, single point]	–
S=C(N/N=C/c1ccc2ncccc2c1)Nc1cccnc1	inconclusive: 15.8 µM [inhibitor, single point]	–
O=C(NCCc1ccccn1)c1cccc(S(=O)(=O)N2CCc3ccccc32)c1	inconclusive: 20 µM [inhibitor, single point]	–
N#CC(c1ccccc1)c1ccc2c(C(F)(F)F)cc(C(F)(F)F)nc2n1 (configuration not stated)	inconclusive: 35.5 µM [inhibitor, single point]	–
c1cnc(N2CCN(c3ccc4ccccc4n3)CC2)nc1	–	inactive: -6.63%
CCOc1ccc2c(c1)/C(=N/N1C(=O)c3ccccc3C1=O)C(=O)N2	–	inactive: 26.5%
COc1ccc2cc3[n+](cc2c1OC)CCc1cc2c(cc1-3)OCO2	inconclusive: 35.5 µM [inhibitor, single point] and inconclusive: 15.8 µM [inhibitor, single point]	–
CCOC(=O)C(Cc1c[nH]c2ccccc12)NC(=O)c1ccccc1Br (configuration not stated)	inconclusive: 12.6 µM [inhibitor, partial curve]	–
Cc1c(NC(=O)c2cc3c(s2)CCCC3)c(=O)n(-c2ccccc2)n1C	–	inactive: -2.48%
CC(=O)Nc1cc2nn(-c3ccccc3)nc2cc1C	inconclusive: 10 µM [inhibitor, single point]	–
COc1ccc(-n2c(=S)[nH]c3sc(-c4ccccc4)cc3c2=O)c(OC)c1	active: 7.08 µM	–
O=C(COc1ccc2c3c(c(=O)oc2c1)CCC3)N1CCCCC1	inconclusive: 6.31 µM [activator, single point]	–
Cc1ccc(NC(=O)CSc2nc3ccccc3c(=O)n2CCCN2CCCCC2)cc1Cl	inconclusive: 35.5 µM [inhibitor, single point]	–
O=C(CNC(=O)c1nc[nH]c1C(=O)NCC(=O)OCc1ccccc1)OCc1ccccc1	inconclusive: 4.47 µM [inhibitor, partial curve, poor fit]	–
N#CCSc1nc(-c2ccccc2)cs1	inconclusive: 11.2 µM [activator, partial curve]	–
CCS(=O)(=O)N1CCN(c2ccc(C(=O)N3CCOCC3)cc2[N+](=O)[O-])CC1	–	inactive: 9.5%
Cc1ccc(C)c(C2=NNC(=NCc3ccccc3)SC2)c1	inconclusive: 1.41 µM [inhibitor, partial curve]	–
O=C(Nc1cccc(F)c1)N1CC=C(n2c(=O)[nH]c3ccccc32)CC1	inconclusive: 22.4 µM [inhibitor, single point]	–
CC(C)(C)N1C(=O)c2ccc(C(=O)Nc3ccc(O)cc3)cc2C1=O	inconclusive: 11.2 µM [inhibitor, partial curve]	–
C[C@H](NC(=O)C1CCN(S(=O)(=O)c2ccccc2)CC1)C(=O)NCc1ccccn1	–	inactive: -9.16%

SMILES	Potency	activity, negative = inhibition
CCOc1ccc(CN2C(=O)c3ccccc3C2=O)cc1C(=O)Nc1nnc(SCC)s1	inconclusive: 5.62 µM [activator, single point]	–
COc1ccc(-c2cc(-c3ccccc3)c(C#N)c(S(C)=O)n2)cc1 (configuration not stated)	inconclusive: 8.91 µM [inhibitor, partial curve]	–
CCn1c(-c2cccc(Br)c2)n[nH]c1=S	active: 7.08 µM	–
COc1cc(C(C)C)c2c(c1)S(=O)(=O)N(COc1cc(=O)n3cccc(OCCN4CCCCC4)c3n1)C2=O	inconclusive: 35.5 µM [inhibitor, single point]	–
O=c1oc2ccccc2cc1-c1nc2ccccc2o1	inconclusive: 1 µM [inhibitor, full curve]	–
CC(C(=O)C12CC3CC(CC(C3)C1)C2)N1CCOCC1 (configuration not stated)	–	inactive: -11.9%
COC(=O)C1=C(C)N(Cc2ccccc2)C(=NCc2cccc(Cl)c2)N[C@H]1c1cccc(F)c1	inconclusive: 35.5 µM [inhibitor, single point]	–
O=C(c1cnsn1)N1CCN(c2ccccn2)CC1	inconclusive: 35.5 µM [inhibitor, single point]	–
CC(C)CNc1nc(N)c([N+](=O)[O-])c(N2CCCCCC2)n1	inconclusive: 31.6 µM [inhibitor, single point]	–
CC1=C(C(=O)NC2CCCc3c2cnn3-c2ccc(F)cc2F)OCCO1 (configuration not stated)	inconclusive: 28.2 µM [inhibitor, single point]	–
c1ccc2[nH]c(CSc3nc4ccccc4s3)nc2c1	inconclusive: 35.5 µM [inhibitor, single point]	–
N#Cc1ncc(-c2ccc3c(c2)OCCOCCOCCOCCO3)nc1C#N	inconclusive: 10 µM [inhibitor, partial curve]	–
CCCCCN1C=CC(=C2C(=O)c3ccccc3C2=O)C=C1	active: 1.26 µM	–
O=C(CCCN1C(=O)/C(=C/c2ccccc2)SC1=S)N1CCOCC1	inconclusive: 10 µM [inhibitor, partial curve]	–
CCn1ncc(NC(=S)NCCc2ccccc2)c1C(N)=O	inconclusive: 35.5 µM [inhibitor, single point]	–
O=[N+]([O-])c1nn(-c2cccc(Cl)c2)n(O)c1=NCc1cccnc1	inconclusive: 5.62 µM [activator, single point]	–
O=C1Nc2ccccc2N=C(c2ccccc2)c2ccccc21	–	inactive: -11.9%
C/C(=N\NC(=O)c1ccc(C)cc1)c1c(C)[nH]n(-c2ccccc2)c1=O	active: 1.58 µM	–
COC(=O)c1c(-c2ccc3ccccc3c2)csc1NC(=O)Cc1ccc(OC)c(OC)c1	inconclusive: 17.8 µM [inhibitor, single point]	–
O=C(Cn1nc2ccccc2n1)N/N=C/c1cc([N+](=O)[O-])ccc1O	active: 1.41 µM	–
Cc1noc(C)c1-c1nc(N2CCNCC2)c2ccccc2n1	–	inactive: -2.37%
